We go through 53 compounds from ChEMBL document CHEMBL4888484, “Replenishing the malaria drug discovery pipeline: Screening and hit evaluation of the MMV Hit Generation Library 1 (HGL1) against asexual blood stage Plasmodium falciparum ,using a nano luciferase reporter read-out” (2022).

The % Inhibition is the drop in the measured response relative to a control, in per cent.

Each structure is given as a SMILES string. Among all 150,000 compounds or so, about 540 (0.36%) showed an effect of 50% or more. The list shows a part of the results.

This test has as its system Plasmodium falciparum. The test can be described thus: Primary screen in NF54 nanoGlo assay, in single point, at 2uM, 72h; a lower Z score goes with more inhibition. The class given is functional, Erythrocyte. To be noted: timepoint 72 hour.
In the case of `CC(C)C[C@@H](N)C(=O)N(C)Cc1nc(C(C)C)no1`, the “% Inhibition” value was -9% and the Z score came to 1.59.
On the same counts, the results for `Cc1ccc(C2=NC3(CCCCC3)N(C(=O)c3cccc(F)c3)C2=O)cc1` are -12% and 1.22.
Regarding `Cc1cnn(Cc2cc(C(=O)N3C[C@H]4CN(Cc5ccccc5)C[C@@]4(CN(C)C)C3)no2)c1`, the “% Inhibition” value is reported as -6% and the Z score was 0.8.
As to `CCn1ccnc1CN(C)Cc1sccc1C`, the “% Inhibition” value is -16% and the Z score is 2.01.
For `CC1C(O)CC2CCC1N2C(C(=O)O)c1cccc(Cl)c1Cl` (stereo unspecified) the same measures were -10% and 1.56.
For `COc1ccccc1CNC(=O)[C@]1(C)Cn2nc(-c3ccccc3)cc2C(=O)N1c1ccc(C)cc1C` the same measures were -1% and 0.08.
Regarding `CCn1cc(S(=O)(=O)N2CCOC[C@@H]2CC(=O)Nc2ccccc2)cn1`, the “% Inhibition” value is reported as 8% and the Z score is -1.44.
On the same counts, the results for `O=C(CCNC(=O)c1ccncc1)NC1(c2ccccc2)CCCC1` are -8% and 0.79.
Take `CCOc1ccc(NC(=O)c2ccc(S(=O)(=O)c3ccc(Cl)cc3)s2)cc1`: the “% Inhibition” value is recorded as -15% and the Z score was 1.4.
For `Cc1c2c(=O)n(-c3nc4ccccc4s3)n(Cc3ccccc3)c2cc(=O)n1Cc1ccc2c(c1)OCO2` the same measures were 42% and -2.03.
On the same counts, the results for `Cc1ccoc1C(=O)NCC1CCN(C2CC2)CC1` are -14% and 1.61.
Regarding `COCCc1nc(Cc2c[nH]c3ccccc23)n(C(C)(C)C)n1`, the “% Inhibition” value is reported as -13% and the Z score stood at 1.99.
As to `COCC1(CNS(=O)(=O)c2cc(-c3cc(C(F)(F)F)on3)oc2C)CCC1`, the “% Inhibition” value is given as -12% and the Z score is given as 1.47.
Turning to `Cc1cccc(C(=O)NCC2CCOCC2)c1`, the “% Inhibition” value is listed as 2% and the Z score is on record as -0.41.
Consider `NC(=O)c1ccccc1OCc1csc(-c2ccco2)n1`, for which the “% Inhibition” value is reported as 31% and the Z score is on record as -3.53.
Regarding `CC(C)=CCO[C@H]1COCC[C@@H]1NC(=O)c1cc(C)nc(N)n1`, the “% Inhibition” value is recorded as -8% and the Z score stood at 1.24.
As to `Cn1nc(-c2nc(-c3ccc(F)cc3)no2)c2c1CCN(C(=O)c1cccc(Cl)c1)C2`, the “% Inhibition” value was 66% and the Z score is recorded as -7.55.
On the same counts, the results for `OCc1cc(-c2ccc(-c3ccn[nH]3)cc2)ccn1` are -14% and 2.41.
Take `COCCNS(=O)(=O)c1ccc(-c2ccc(OC)cc2S(=O)(=O)NCCOC)cc1`: the “% Inhibition” value is given as -5% and the Z score amounted to 0.71.
On to `CN(c1nc2c(c(N3CCOCC3)n1)CN(C(=O)c1ccc(Cl)cc1)CC2)C1CCCCC1`, for which the “% Inhibition” value is listed as -8% and the Z score was 1.41.
`CCc1ccc(Cn2nc(CCOC)nc2[C@H](C)N2CCOCC2)cc1`: the “% Inhibition” value was -1% and the Z score is 0.1.
As for `Cc1nscc1C(=O)Nc1nnc(-c2ccoc2)[nH]1`, the “% Inhibition” value is -9% and the Z score came out at 0.89.
For `O=c1cnc2ccccc2n1C[C@H]1CCCCO1` the same measures were 1% and -0.11.
`c1cc(-c2ccc3oc(-c4cccnc4)nc3c2)cc(-c2cc[nH]n2)c1`: the “% Inhibition” value was -11% and the Z score is given as 1.97.
Take `CCCCN1C(=O)c2ccc(C(=O)Nc3ccc(Oc4ccccc4C#N)nc3)cc2C1=O`: the “% Inhibition” value came out at 0% and the Z score is listed as 0.01.
Consider `CC(C)c1nc(CCN(C)C(=O)c2cnc(O)cn2)no1`, for which the “% Inhibition” value amounted to 10% and the Z score was -1.29.
Consider `CCn1cc(-c2ccccc2)cc1C(=O)NCCCN1CCCC1`, for which the “% Inhibition” value came to 12% and the Z score is -1.95.
On the same counts, the results for `CN(C)C(=O)N1Cc2ccccc2C[C@H]1c1ccccc1` are -3% and 0.38.
With `Cn1cc(C(=O)NCC(O)c2ccccc2F)c(C2CCCN(C(=O)OC(C)(C)C)C2)n1` (stereo unspecified), the “% Inhibition” value was 1% and the Z score is reported as -0.09.
On the same counts, the results for `Cc1nc(CCNc2nc(-c3ccncc3)nc3c2CCNC3)sc1C` are 2% and -0.16.
Take `O=C(Nc1ccc(-n2ncc3ccccc32)cc1)N1CCOCC1C1CCCO1` (stereo unspecified): the “% Inhibition” value is recorded as 8% and the Z score is recorded as -0.92.
On the same counts, the results for `C[C@H](NC(=O)c1cn(C(c2ccccc2)c2ccccc2)nn1)c1ccccc1` are -2% and 0.25.
On the same counts, the results for `CCc1ccc(S(=O)(=O)Nc2cccn3nc(C)nc23)cc1` are -9% and 1.03.
On the same counts, the results for `CN(Cc1ccccn1)C(=O)[C@@H]1CCC[C@@H]1CNC(=O)OC(C)(C)C` are -6% and 1.16.
Take `O=C1C[C@H](Nc2ccncc2Cl)CN1C1CC1`: the “% Inhibition” value is on record as 5% and the Z score was -0.72.
On the same counts, the results for `CC1(C)COc2c(S(=O)(=O)N3CCn4nccc43)cnn2C1` are -3% and 0.47.
On the same counts, the results for `CCn1nccc1[C@H]1Nc2ccccc2C(=O)N1c1ccc(OC)nc1` are -13% and 1.11.
`COc1cccc(C(=O)N2CCC3(CC2)N(C)C(=O)CS3(=O)=O)c1C`: the “% Inhibition” value was -8% and the Z score is 1.13.
For `COc1ccc(-c2noc([C@H](C)O)c2C(=O)N2CCC(Cc3ccccc3)CC2)cc1OC` the same measures were -7% and 1.16.
For `O=C(c1cc(-c2ccc(F)cc2Cl)c[nH]1)N1CCCCC1` the same measures were -19% and 2.09.
As to `COc1ccc(CNCc2ccccc2CN2CC(C)CC(C)C2)c(OC)c1OC` (stereo unspecified), the “% Inhibition” value is listed as -3% and the Z score amounted to 0.41.
Take `CCC=C(C)C(=O)Nc1cccc(Cn2ccnc2)c1`: the “% Inhibition” value is 7% and the Z score was -1.04.
For `COc1ccccc1Cn1ncc2[nH]c(-c3ccc4c(c3)OCCO4)nc21`, the “% Inhibition” value was -8% and the Z score is 1.4.
`CCN(Cc1nc(C(C)C)no1)C(=O)c1cnc[nH]1`: the “% Inhibition” value is listed as -4% and the Z score was determined as 0.83.
Take `CN1C(=O)NC(C)(C2CCCN(CCc3ccccc3Cl)C2)C1=O` (stereo unspecified): the “% Inhibition” value is reported as 3% and the Z score is -0.4.
For `COCCC1(NS(C)(=O)=O)CCN(C(=O)c2cnccc2C)CC1` the same measures were 17% and -2.09.
`Cn1cc(-c2ncccc2CNC(=O)N2CCN(S(C)(=O)=O)C2=O)cn1`: the “% Inhibition” value was -9% and the Z score is listed as 1.44.
For `Cc1ccc(F)cc1NC(=O)c1sc2sc(C(=O)Nc3cc(F)ccc3C)c(N)c2c1N` the same measures were 6% and -0.8.
As for `Cc1cc(C)c(S(=O)(=O)NCCn2c(-c3ccc(F)cc3)nc3ccccc32)cc1C`, the “% Inhibition” value was determined as 1% and the Z score is -0.11.
For `COc1cccc2c(=O)c(NC(=O)NCc3ccco3)c[nH]c12` the same measures were -9% and 1.13.
Turning to `COc1cc(F)c(CN(C)Cc2cc(C)no2)c(F)c1`, the “% Inhibition” value was -2% and the Z score stood at 0.4.
On the same counts, the results for `Cc1sc2nc(C(F)(F)F)nc(N3CCCN(C(=O)C4CCCC4)CC3)c2c1C` are -7% and 1.05.
Consider `CCn1c(=O)c(C(=O)NCC2CCCCC2)nc2cccnc21`, for which the “% Inhibition” value is listed as -7% and the Z score is recorded as 0.78.
